# From PubChem BioAssay
# Inconclusive means that the source gave no clear call. Such entries were picked first, then a sample of the others. Active and inactive are the calls of the source.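 How the source made its calls: active means fitted half-maximal concentration for viability loss no higher than twice the top valid dose, in every repeat run; inconclusive means repeat runs disagree, flat partial loss, or poor curve fit; inactive means the rest.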
# Assay: IOSE-T80 viability loss, PAX8-independent line – cell-based, cherry-pick, selectivity assay for PAX8 inhibitor project, dose response (AID 687032);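 further: cells exposed to compound for 96 h before reading; 0% = neutral control wells and -100% = 2 µM mitoxantrone kill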
# Settings: CellTiterGlo ATP luminescence, 96 h; at 35 µM (top of the series) unless noted
row,SMILES,"activity change, negative = viability loss"
1,CC(=O)Nc1ccc(-c2ccnc3c2CC(C(=O)NCc2ccccc2)O3)cc1 (stereo not given),inconclusive: 8.46%
2,COc1ccc(-c2ccc(C3[C@@H]4CN(C(=O)Nc5cccc(F)c5)C[C@H]3N4)cc2)cc1 (stereo not given in full),inconclusive: -24.7%
3,Cc1ccc(C(=O)c2cc([N+](=O)[O-])ccc2N2CCCCC2)c(C)c1,inconclusive: 0.702%
4,COc1ccc(N2C(=O)CC(Sc3nnnn3-c3ccc(F)cc3)C2=O)cc1 (stereo not given),inconclusive: -2.88%
5,C[C@@H]1CN([C@@H](C)CO)C(=O)c2c(c3ccccc3n2C)-c2ccccc2CO[C@H]1CN(C)S(=O)(=O)c1cccc(F)c1,inactive: 4.43%
6,CN(C)CCNC(=O)c1cccc(-c2cnc3c(NC=O)cc(-c4cccc(C(F)(F)F)c4)cn23)c1,inconclusive: 15.3%
7,O=C(Nc1ccccc1)Nc1cc(OCC(F)(F)F)cc(OCC(F)(F)F)c1,inconclusive: 4.53%
8,CC(=O)c1cc(NC(=O)c2cccc(C(F)(F)F)c2)c(=O)oc1C,inconclusive: 19.9%
9,C[C@H](CO)N1C[C@H](C)[C@@H](CN(C)Cc2ccccc2)Oc2ccc(NC(=O)Nc3ccc(C(F)(F)F)cc3)cc2CC1=O,inactive: 10.4%
10,C[C@@H]1CCCCO[C@@H](CN(C)Cc2ccc(Cl)c(Cl)c2)[C@H](C)CN([C@H](C)CO)C(=O)c2cc(NS(=O)(=O)c3ccc(F)cc3)ccc2O1,inactive: 0.128%
11,CC(C)=CCC/C(C)=C/CN1C(=O)N(c2ccc(F)cc2)[C@H]2C[C@@H](c3ccccc3)[C@@H](C)[C@@H](C(=O)N3CCOCC3)C[C@H]21,inconclusive: -1.05%
12,O=C(C[C@@H]1CC[C@H]2[C@@H](COC[C@H](O)CN2C(=O)Nc2ccc(Cl)c(Cl)c2)O1)NCc1ccc(Cl)cc1,inactive: -4.81%
13,COc1cc([C@@H]2c3cc4c(cc3[C@H](O)[C@H]3COC(=O)[C@H]23)OCO4)cc(OC)c1OC,inconclusive: 7.45%
14,COc1cccc(N2CCN(c3ncnc4c3cnn4-c3ccc(C)cc3C)CC2)c1,inconclusive: 8.39%
15,O=C(N/N=C/c1c[nH]c2ccccc12)c1[nH]c2ccc(Br)cc2c1-c1ccccc1,inconclusive: 24%
16,C[C@H](O)C#Cc1ccc2c(c1)O[C@@H](CN(C)Cc1ccc(-c3ccccc3)cc1)[C@@H](C)CN([C@@H](C)CO)S2(=O)=O,inactive: 4.74%
17,C=C1C(=O)[C@]23C[C@H]1CC[C@H]2[C@]1(C)[C@@H](OC(C)=O)CC[C@@](C)(C(=O)O)[C@H]1C[C@@H]3O,inconclusive: 8.61%
18,Brc1ccc2nc(-c3ccc(CN4CCC(c5nc6ccccc6[nH]5)CC4)cc3)c(-c3ccccc3)nc2c1,inactive: 9.44%
19,O=c1[nH]nnc2c1ncn2C1OC(CO)C(O)C1O (stereo not given),inconclusive: 1.79%
20,COC1C(CO)OC(n2c3c(Cl)cccc3c3c4c(c5c6cccc(Cl)c6[nH]c5c32)C(=O)NC4=O)C(O)C1O (stereo not given),inconclusive: -8.02%
21,CCNC(=O)C1(C)CCN(C(=O)c2ccccc2F)C1 (stereo not given),inconclusive: 5.19%
22,O=C(NCC1CCCO1)C(=O)NCC(c1ccco1)N1CCN(c2ccccc2)CC1 (stereo not given),inconclusive: 3.08%
23,CC(=O)NC(c1ccc(Cl)cc1)c1ccc2cccnc2c1O (stereo not given),inconclusive: 8.21%
24,COc1ccc2cc(CNCCOCCOCCNCc3ccc4cc(OC)ccc4c3)ccc2c1,inconclusive: 7.01%
25,COc1ccc(S(=O)(=O)N(C)C[C@H]2OCCCC[C@@H](C)Oc3ccc(NS(=O)(=O)c4c(C)noc4C)cc3C(=O)N([C@H](C)CO)C[C@H]2C)cc1,inactive: 8.74%
26,COc1cccc(-c2ccc3c(c2)[C@H]2[C@H](CCN2C(=O)NC2CCCCC2)[C@@H](CO)N3C)c1,inactive: 17.2%
27,C[C@@H]1CN([C@H](C)CO)C(=O)c2cc(NS(=O)(=O)c3ccc(Cl)cc3)ccc2O[C@@H](C)CCCCO[C@H]1CN(C)Cc1ccc2c(c1)OCO2,inactive: 5.37%
28,COc1ccccc1S(=O)(=O)N(C)C[C@H]1Oc2cc(C#CCC3CCCC3)ccc2S(=O)(=O)N([C@@H](C)CO)C[C@H]1C,inactive: 15.9%
29,CCOC(=O)c1c2c(n(Cc3ccccc3)c1C)C(=O)C(=O)c1ccccc1-2,inconclusive: 13.6%
30,C[C@@H]1CCCCO[C@H](CN(C)Cc2ccc(C(F)(F)F)cc2)[C@H](C)CN([C@@H](C)CO)C(=O)c2cc(NS(=O)(=O)c3ccc(F)cc3)ccc2O1,inconclusive: 12.1%
